# Assay results from the supplement of paper PMC3694890.
# ± gives the uncertainty stated by the source. The list shows a part of the results. Phosphotyrosine is written y.
# Biological target: GRB2 (endogenous complexes from cell lysate), P62993
# Assay: GRB2 complex binding differential signal (pY peptide minus Ala control peptide) (fluorescence intensity units); higher = stronger GRB2 complex binding
# Conditions: MCF7
# Protocol: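 In situ synthesized µParaflo PepArray of 6-mer peptides, each starting with an N-terminal phosphotyrosine (lowercase 'y' = pY) followed by 5 native residues. Peptides are tethered to glass through a long linker. Chips were incubated overnight at 4°C with total cell lysate (1 mg in 1 mL) from MCF10A, MCF7, T47D or MDA-MB-231 cells. Bound endogenous GRB2-containing complexes were detected with rabbit anti-GRB2 and an Alexa647 secondary antibody. Signals are background-subtracted and averaged over replicate spots, then the matched Ala-substituted control peptide signal is subtracted (differential signal).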
# 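Note: phosphopeptide probes on the chip at 1–4 µM, lysate proteins bound in 20 mM Tris pH 7.0 buffer with 140 mM NaCl, 1% Triton X-100 and 5% glycerol.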
row,Binder,GRB2 complex binding differential signal
1,yELMLR [DDR1_881/A1],662 ± 200
2,yRSPPP [DAG1_886/A1],15600 ± 3200
3,yLPVQT [DMD_3394/A1],2120 ± 1200
4,yVRALF [CRK_136/A1],659 ± 680
5,yARVIQ [CRK_239/A1],5080 ± 1400
6,yDKTAL [CRK_251/A1],1160 ± 510
7,yEGNSY [CSF1R_556/A1],3120 ± 1300
8,yVRRDS [CSF1R_708/A1],1950 ± 540
9,yPMLLH [DDR1_740/A1],29.3 ± 300
10,yAGDYY [DDR1_792/A1],54 ± 180
11,yLEGNN [CSK_304/A1],448 ± 480
12,yPIRAP [CSPG2_208/A1],687 ± 680
13,yLSRPP [DDR1_869/A1],2660 ± 1700
14,yTFIDP [CSF1R_561/A1],-3.39 ± 260
15,yMENGD [DDR1_703/A1],1070 ± 2200
16,yQPPPP [DAG1_863/A1],4960 ± 1500
17,yARPPR [DDR1_520/A1],3860 ± 570

row,Binder,GRB2 complex binding differential signal
1,yVEMRP [CSF1R_723/A1],1410 ± 560
2,yRLLLA [DDR1_513/A1],147 ± 340
3,yLIPQQ [EGFR_1016/A1],10200 ± 2600
4,yYRVQG [DDR1_796/A1],1770 ± 250
5,yRVQGR [DDR1_797/A1],938 ± 380
6,yTAHAG [ABL1_393/A1],3830 ± 430
7,yAQPQT [CRKL_207/A1],2800 ± 1100
8,yELMRA [ABL1_469/A1],1050 ± 420
9,yEVMKN [CSK_416/A1],696 ± 260
10,yQEPRP [DDR1_484/A1],6760 ± 2000
11,yPNQSV [DAG1_831/A1],1370 ± 380
12,yIVKGN [CSF1R_809/A1],1450 ± 410
13,yAQPSV [CRK_221/A1],2840 ± 2500
14,yRSGWA [CSK_184/A1],251 ± 260
15,yDFVAS [ABL2_116/A1],-37 ± 320
16,yKNIHL [CSF1R_699/A1],45200 ± 7900

# Same assay, conditions: MCF10A
row,Binder,GRB2 complex binding differential signal
1,yELMLR [DDR1_881/A1],164 ± 320
2,yRSPPP [DAG1_886/A1],9750 ± 1600
3,yLPVQT [DMD_3394/A1],3080 ± 780
4,yVRALF [CRK_136/A1],253 ± 410
5,yARVIQ [CRK_239/A1],2770 ± 440
6,yDKTAL [CRK_251/A1],1740 ± 480
7,yEGNSY [CSF1R_556/A1],896 ± 1200
8,yVRRDS [CSF1R_708/A1],829 ± 290
9,yPMLLH [DDR1_740/A1],190 ± 220
10,yAGDYY [DDR1_792/A1],143 ± 140
11,yLEGNN [CSK_304/A1],141 ± 150
12,yPIRAP [CSPG2_208/A1],2180 ± 1100
13,yLSRPP [DDR1_869/A1],2170 ± 370
14,yTFIDP [CSF1R_561/A1],115 ± 140
15,yMENGD [DDR1_703/A1],1130 ± 720
16,yQPPPP [DAG1_863/A1],3710 ± 760
17,yARPPR [DDR1_520/A1],1250 ± 400

row,Binder,GRB2 complex binding differential signal
1,yVEMRP [CSF1R_723/A1],1330 ± 480
2,yRLLLA [DDR1_513/A1],236 ± 290
3,yLIPQQ [EGFR_1016/A1],5490 ± 810
4,yYRVQG [DDR1_796/A1],627 ± 230
5,yRVQGR [DDR1_797/A1],468 ± 310
6,yTAHAG [ABL1_393/A1],1300 ± 460
7,yAQPQT [CRKL_207/A1],3420 ± 890
8,yELMRA [ABL1_469/A1],452 ± 340
9,yEVMKN [CSK_416/A1],493 ± 220
10,yQEPRP [DDR1_484/A1],3770 ± 490
11,yPNQSV [DAG1_831/A1],908 ± 370
12,yIVKGN [CSF1R_809/A1],2230 ± 450
13,yAQPSV [CRK_221/A1],2120 ± 830
14,yRSGWA [CSK_184/A1],298 ± 170
15,yDFVAS [ABL2_116/A1],103 ± 170
16,yKNIHL [CSF1R_699/A1],24700 ± 10000

# Same assay, conditions: MDA-MB-231
row,Binder,GRB2 complex binding differential signal
1,yELMLR [DDR1_881/A1],1370 ± 440
2,yRSPPP [DAG1_886/A1],3380 ± 630
3,yLPVQT [DMD_3394/A1],1430 ± 340
4,yVRALF [CRK_136/A1],1000 ± 590
5,yARVIQ [CRK_239/A1],609 ± 390
6,yDKTAL [CRK_251/A1],625 ± 280
7,yEGNSY [CSF1R_556/A1],511 ± 310
8,yVRRDS [CSF1R_708/A1],702 ± 310
9,yPMLLH [DDR1_740/A1],98.5 ± 210
10,yAGDYY [DDR1_792/A1],508 ± 290
11,yLEGNN [CSK_304/A1],564 ± 310
12,yPIRAP [CSPG2_208/A1],359 ± 930
13,yLSRPP [DDR1_869/A1],1850 ± 480
14,yTFIDP [CSF1R_561/A1],3300 ± 710
15,yMENGD [DDR1_703/A1],705 ± 360
16,yQPPPP [DAG1_863/A1],1790 ± 520
17,yARPPR [DDR1_520/A1],961 ± 330

row,Binder,GRB2 complex binding differential signal
1,yVEMRP [CSF1R_723/A1],1310 ± 440
2,yRLLLA [DDR1_513/A1],999 ± 300
3,yLIPQQ [EGFR_1016/A1],2420 ± 620
4,yYRVQG [DDR1_796/A1],517 ± 330
5,yRVQGR [DDR1_797/A1],243 ± 360
6,yTAHAG [ABL1_393/A1],935 ± 510
7,yAQPQT [CRKL_207/A1],1410 ± 630
8,yELMRA [ABL1_469/A1],1180 ± 320
9,yEVMKN [CSK_416/A1],935 ± 260
10,yQEPRP [DDR1_484/A1],1780 ± 460
11,yPNQSV [DAG1_831/A1],1100 ± 360
12,yIVKGN [CSF1R_809/A1],912 ± 460
13,yAQPSV [CRK_221/A1],1090 ± 510
14,yRSGWA [CSK_184/A1],487 ± 270
15,yDFVAS [ABL2_116/A1],306 ± 280
16,yKNIHL [CSF1R_699/A1],4990 ± 1500

# Same assay, conditions: T47D
row,Binder,GRB2 complex binding differential signal
1,yELMLR [DDR1_881/A1],1770 ± 3600
2,yRSPPP [DAG1_886/A1],3200 ± 1100
3,yLPVQT [DMD_3394/A1],1600 ± 1300
4,yVRALF [CRK_136/A1],2470 ± 1200
5,yARVIQ [CRK_239/A1],841 ± 1400
6,yDKTAL [CRK_251/A1],1070 ± 930
7,yEGNSY [CSF1R_556/A1],576 ± 1600
8,yVRRDS [CSF1R_708/A1],352 ± 880
9,yPMLLH [DDR1_740/A1],205 ± 1300
10,yAGDYY [DDR1_792/A1],854 ± 1400
11,yLEGNN [CSK_304/A1],230 ± 870
12,yPIRAP [CSPG2_208/A1],414 ± 1300
13,yLSRPP [DDR1_869/A1],2850 ± 1600
14,yTFIDP [CSF1R_561/A1],7450 ± 1400
15,yMENGD [DDR1_703/A1],766 ± 1200
16,yQPPPP [DAG1_863/A1],1650 ± 1100
17,yARPPR [DDR1_520/A1],722 ± 960

row,Binder,GRB2 complex binding differential signal
1,yVEMRP [CSF1R_723/A1],1180 ± 770
2,yRLLLA [DDR1_513/A1],2120 ± 1000
3,yLIPQQ [EGFR_1016/A1],1100 ± 2600
4,yYRVQG [DDR1_796/A1],607 ± 1200
5,yRVQGR [DDR1_797/A1],181 ± 1100
6,yTAHAG [ABL1_393/A1],1450 ± 1100
7,yAQPQT [CRKL_207/A1],1110 ± 1100
8,yELMRA [ABL1_469/A1],1720 ± 1700
9,yEVMKN [CSK_416/A1],449 ± 900
10,yQEPRP [DDR1_484/A1],1780 ± 1200
11,yPNQSV [DAG1_831/A1],3560 ± 1400
12,yIVKGN [CSF1R_809/A1],573 ± 1000
13,yAQPSV [CRK_221/A1],1010 ± 1000
14,yRSGWA [CSK_184/A1],170 ± 980
15,yDFVAS [ABL2_116/A1],630 ± 1500
16,yKNIHL [CSF1R_699/A1],14500 ± 3800
